Assay [1] addresses T1, NdhM bait construct in pGBKT7 (Gal4 DNA binding domain) (Synechocystis sp. PCC 6803) (UniProt P74338).
T1 sequence: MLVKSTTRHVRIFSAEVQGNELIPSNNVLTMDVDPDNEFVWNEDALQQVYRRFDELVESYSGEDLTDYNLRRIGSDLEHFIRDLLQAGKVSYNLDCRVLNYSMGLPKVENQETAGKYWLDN
Nature of the assay: two-hybrid; NdhM in pGBKT7 (Gal4 DNA binding domain) as bait, Ndh subunits in pGADT7 (Gal4 activation domain) as prey; S. cerevisiae AH109; growth on medium lacking Trp, Leu, His and Ade, 30 °C, 6 days.

For assay [2], the target named is T2, GST-NdhM (Synechocystis sp. PCC 6803) (UniProt P74338).
T2 sequence: T1 sequence
The assay can be described thus: pull-down; GST-NdhM on glutathione-Sepharose 4B resin as bait, His-tagged Ndh subunits as prey; 2 h at 4 °C in 20 mM Tris-HCl pH 7.5, 100 mM NaCl, 0.1 mM EDTA, 0.2% Triton, 10% glycerol; washed five times with 300 mM NaCl, 0.5% Nonidet P-40; eluates blotted with anti-His antibody; both purified.

The target in assay [3] is T2, GST-NdhM (Synechocystis sp. PCC 6803). Described as above. The source holds these as a separate data set.
Assay [4] concerns the target T3, NdhH subunit (endogenous, cytoplasmic fraction) (Synechocystis sp. PCC 6803 (endogenous in the wild-type strain)) (UniProt P27724).
T3 sequence: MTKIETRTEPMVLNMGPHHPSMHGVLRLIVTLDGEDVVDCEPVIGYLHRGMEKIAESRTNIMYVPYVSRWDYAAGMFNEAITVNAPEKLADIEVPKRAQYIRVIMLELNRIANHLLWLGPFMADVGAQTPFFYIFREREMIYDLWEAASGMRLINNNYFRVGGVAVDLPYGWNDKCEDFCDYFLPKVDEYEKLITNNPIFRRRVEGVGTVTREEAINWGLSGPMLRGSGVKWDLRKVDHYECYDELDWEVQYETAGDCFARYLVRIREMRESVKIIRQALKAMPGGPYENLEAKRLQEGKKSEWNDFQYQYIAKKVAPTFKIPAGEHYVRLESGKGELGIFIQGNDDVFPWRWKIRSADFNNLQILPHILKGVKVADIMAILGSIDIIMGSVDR
Nature of the assay: native gel or EMSA; clear native PAGE (5-13% gradient, 4 °C) of 50 μg of cytoplasmic proteins of wild-type Synechocystis 6803, then second-dimension SDS-PAGE and immunoblotting with antibodies against Ndh subunits; subunits found in the same subcomplex.

Read-outs that look alike come from different tables or passages of the source. These are yes or no findings as the source states them, for the method shown. Some results given as binding are weak or reduced against the parent protein; the word gives no strength. For part of these data: Where a sequence is shown, tags or fusion partners need not be part of it.

In the case of “NdhI prey construct in pGADT7 (Gal4 activation domain) (from UniProt P26525 1-193)”, in assay [1], the binding entry is listed as “binds”.

Consider NdhJ-His6 (from UniProt P19125 1-179), for which, in assay [2], the binding result is recorded as “binds weakly”.

B1: NdhL prey construct in pGADT7 (Gal4 activation domain) (protein, UniProt P27372 1-80)
chain: MEDLLGLLLSETGLLAIIYLGLSLAYLLVFPALLYWYLQKRWYVASSVERLVMYFLVFLFFPGLLVLSPVLNLRPRRQAA
In the case of B1, in assay [1], the binding entry is listed as “no binding”.

B2: NdhO-His6 (protein, UniProt P74771 1-72)
chain: MAAKMKKGSLVRVIRAQLENSLEAQASDRRLPDYLFHSKGEVLDLNEEYALVRFYVPTPNVWLRLDQIEALA
For the molecule B2, the binding entry in assay [3] is reported as “no binding”.

B3: NdhO prey construct in pGADT7 (Gal4 activation domain) (protein, UniProt P74771 1-72)
chain: B2 chain
In the case of B3, the binding result in assay [1] is reported as “no binding”.

B4: NdhN-His6 (protein, UniProt P74069 1-161)
chain: MLPLPLIANGKGFIRALENDGALAVYAPLEGGYEGRYQRRLRANGYASISLSARGLGDVEAYLMQVHGVRPAHLGKKNIAQEGAVGPIYFAQPIAGYQLENLPAQSKGLVLWILEGYILSQTEIQDLISLTKRVPKLKVVLEMGGDRVFRWQPLLDCLQAA
Consider B4, for which, in assay [3], the binding entry is “no binding”.

B5: NdhN prey construct in pGADT7 (Gal4 activation domain) (protein, UniProt P74069 1-161)
chain: B4 chain
For B5, the binding entry in assay [1] is on record as “no binding”.

B6: GST-NdhM (natural protein, Synechocystis sp. PCC 6803, UniProt P74338 1-121, looked up)
chain: T1 sequence
notes: NdhM subunit of NDH-1, Synechocystis sp; PCC 6803, gene slr1623 (ndhM); fragment containing ndhM cloned into pGEX-4T-1; also called recombinant NdhM fused with GST; NdhM fused to GST; source: E. coli BL21(DE3) pLysS, purified (glutathione-Sepharose 4B column)
As to B6, the binding entry in assay [4] is “binds”.

B7: NdhH prey construct in pGADT7 (Gal4 activation domain) (protein, UniProt P27724 1-394)
chain: T3 sequence
For B7, the binding entry in assay [1] is listed as “binds”.

The values above are taken from paper PMC4786724, “NdhM Subunit Is Required for the Stability and the Function of NAD(P)H Dehydrogenase Complexes Involved in CO2 Uptake in Synechocystis sp. Strain PCC 6803* ^([image sbox.jpg])” (The Journal of Biological Chemistry, 2015).
